Test results as given in PubChem BioAssay AID1508642 (National Center for Advancing Translational Sciences (NCATS), 2021).
The whole screen tested about 43,000 compounds, of which about 200 (0.47%) were called active. Roughly 12% stayed inconclusive and do not appear here. Calls follow the shape of the dose curve; as a rule, active = well fitted cell-killing curve with a large enough effect; inconclusive = small, poorly fitted or top-dose-only effect, or effect the other way; inactive = flat fitted curve, though single readings scatter. The list shows a part of the results.

Assay: Cell viability qHTS assay in S16 Pmp22-F2sN cells; also: nearly all actives have a fitted effect of over 65% in size
Conditions: S16 Pmp22-F2sN Schwann cells (luciferase reporters placed in the Pmp22 gene) viability, CellTiter-Glo, 24 h; series mostly up to 57.5 µM; activity change, negative = cytotoxicity: at the top concentration
Outline: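 CellTiter-Glo counter-screen, qHTS, 1536-well. Cells: S16(c9) Pmp22-F2sN, 500-1,000/well in DMEM + 10% FBS. Cpd 23 nL pin transfer, 24 h, 37C/5% CO2. Read: luminescence, CCD imager.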
% is scaled to controls: 0 for no effect and ±100 for the full control effect.

Q: Which “activity change, negative = cytotoxicity” value does the source give for `CN(C(=O)c1cnc(N2CCOCC2)c2ccccc12)c1ccccc1F` here?
A: inactive: 2.33%

Q: Which “activity change, negative = cytotoxicity” value does the source give for `CCn1nc(-c2ccccc2)c(-c2ccccc2)c(C(=O)Nc2ccccc2C(N)=O)c1=O` here?
A: inactive: -1.19%

Q: With `O=C(c1cnc(N2CCOCC2)c2ccccc12)N1CCN(c2ccc(F)cc2)CC1` as the molecule, how does the “activity change, negative = cytotoxicity” value read?
A: inactive: -15.5%

Q: With `Cc1c(-c2nc(-c3ccc4c(c3)[nH]c(=O)n4C)no2)cccc1[N+](=O)[O-]` as the molecule, how does the “activity change, negative = cytotoxicity” value read?
A: inactive: 9.7%

Q: For `Cc1cccc(-c2noc(CN(C(C)C)S(=O)(=O)c3ccc(Br)cc3)n2)c1`, which “activity change, negative = cytotoxicity” value is on record?
A: inactive: -13%

Q: Which “activity change, negative = cytotoxicity” value does the source give for `Cc1ccc(N2CCN(Cc3nnc(-c4ccc5c(c4)OCO5)o3)CC2)c(C)c1` here?
A: inactive: 3.16%

Q: For `Cc1cccc(NC(=O)Cn2nc(C)c3nn(-c4ccc(Cl)cc4)c(C)c3c2=O)c1C`, which “activity change, negative = cytotoxicity” value is on record?
A: inactive: -4.8%

Q: With `COc1ccccc1N1CCN(C(=O)c2ccc3c(c2)N(Cc2ccccc2)C(=O)c2ccccc2S3(=O)=O)CC1` as the molecule, how does the “activity change, negative = cytotoxicity” value read?
A: inactive: -7.09%

Q: With `COc1ccc(-c2cc(C(F)(F)F)n3nc(-c4ccc(Cl)cc4)cc3n2)cc1OC` as the molecule, how does the “activity change, negative = cytotoxicity” value read?
A: inactive: 15.1%

Q: With `COCCNC(=O)CSc1nc2cc3c(cc2c(=O)n1CCCCCC(=O)NCCc1ccc(OC)c(OC)c1)OCO3` as the molecule, how does the “activity change, negative = cytotoxicity” value read?
A: inactive: 0.346%

Q: With `O=C1c2ccccc2-c2onc3c(Br)cc(NC4CCCCC4)c1c23` as the molecule, how does the “activity change, negative = cytotoxicity” value read?
A: inactive: 2.21%

Q: With `Cc1cccc(N2C(=O)CSC23C(=O)N(CC(=O)NCCc2ccccc2)c2ccccc23)c1` (configuration not stated) as the molecule, how does the “activity change, negative = cytotoxicity” value read?
A: inactive: -2.37%

Q: Which “activity change, negative = cytotoxicity” value does the source give for `O=C(CSc1nnc(-c2cccs2)o1)Nc1cccc(C(F)(F)F)c1` here?
A: inactive: -12.8%

Q: With `CCCCOC(=O)c1ccc(NC(=O)c2ccc3c(c2)CCN3S(=O)(=O)c2ccccc2)cc1` as the molecule, how does the “activity change, negative = cytotoxicity” value read?
A: inactive: 25%

Q: For `O=C(Nc1ccc(F)cc1F)c1ccc(-c2ccccc2)s1`, which “activity change, negative = cytotoxicity” value is on record?
A: inactive: 6.92%

Q: With `COc1ccc(C2CC(=O)c3cc(-c4nc(-c5cccc([N+](=O)[O-])c5)cs4)c(=O)n(-c4cc(C)cc(C)c4)c3C2)cc1` (configuration not stated) as the molecule, how does the “activity change, negative = cytotoxicity” value read?
A: inactive: -0.0498%

Q: With `CCOC(=O)CSc1nc2sc3c(c2c(=O)n1CC)CCCC3` as the molecule, how does the “activity change, negative = cytotoxicity” value read?
A: inactive: 6.87%

Q: Which “activity change, negative = cytotoxicity” value does the source give for `O=C(CCCn1c(=O)c2sccc2n(Cc2c(F)cccc2Cl)c1=O)NCc1ccccc1` here?
A: inactive: 18.3%

Q: Which “activity change, negative = cytotoxicity” value does the source give for `Cc1cnc2c(c1SCC(=O)N(C)c1ccccc1)c(=O)n(C)c(=O)n2C` here?
A: inactive: 10.3%

Q: With `Cc1ccc2nc(CSc3nnc(NC(=O)COc4ccccc4F)s3)cc(=O)n2c1` as the molecule, how does the “activity change, negative = cytotoxicity” value read?
A: inactive: 8.68%

Q: For `COc1ccc(C)cc1N(CC(=O)N1CCC(C)CC1)S(=O)(=O)c1ccc(C)cc1`, which “activity change, negative = cytotoxicity” value is on record?
A: inactive: -7.72%

Q: With `Nc1c(C(=O)c2ccc3c(c2)OCO3)sc(Nc2ccccc2F)c1S(=O)(=O)c1ccccc1` as the molecule, how does the “activity change, negative = cytotoxicity” value read?
A: inactive: -1.55%

Q: For `CC(=O)c1cccc(NC(=O)Cn2cnc3c2c(=O)n(C)c(=O)n3C)c1`, which “activity change, negative = cytotoxicity” value is on record?
A: inactive: 2.23%

Q: With `CCOC(=O)c1cccc(NC(=O)Cc2ccc(NC(=O)N3CCCCc4ccccc43)cc2)c1` as the molecule, how does the “activity change, negative = cytotoxicity” value read?
A: inactive: -26.2%

Q: For `CCC(=O)N1CCc2cc(Br)cc(S(=O)(=O)N3CCCC(C(=O)Nc4ccc(CC)cc4)C3)c21` (configuration not stated), which “activity change, negative = cytotoxicity” value is on record?
A: inactive: 5.41%

Q: Which “activity change, negative = cytotoxicity” value does the source give for `COc1ccc(-n2c(CCC(=O)O)ccc2-c2ccccc2)cc1` here?
A: inactive: 3.45%

Q: For `CCOc1ccccc1CNS(=O)(=O)c1cnc(N)nc1`, which “activity change, negative = cytotoxicity” value is on record?
A: inactive: 17.7%

Q: For `COc1ccccc1Cn1c(CNS(=O)(=O)c2ccc(Cl)s2)nc2cccnc21`, which “activity change, negative = cytotoxicity” value is on record?
A: inactive: -23.5%

Q: Which “activity change, negative = cytotoxicity” value does the source give for `Cc1nnc(N2CCN(c3ccccc3)CC2)c2c1nnn2Cc1ccc(F)cc1` here?
A: inactive: 4.62%

Q: Which “activity change, negative = cytotoxicity” value does the source give for `CCOC(=O)c1[nH]c(C)c(CCC(=O)N2CCN(c3cc(Cl)ccc3C)CC2)c1C` here?
A: inactive: -7.36%

Q: For `O=C1Nc2c(c(=O)[nH]c(=O)n2-c2ccc(Cl)cc2)C1(NS(=O)(=O)c1ccccc1)C(F)(F)F` (configuration not stated), which “activity change, negative = cytotoxicity” value is on record?
A: inactive: 6.06%

Q: With `Cc1ccc(C)c(NC(=O)CCn2cnnn2)c1` as the molecule, how does the “activity change, negative = cytotoxicity” value read?
A: inactive: 0.63%

Q: With `COc1ccc(Cn2c(=O)c3oc4ccccc4c3n(CC(=O)Nc3cc(C)cc(C)c3)c2=O)cc1` as the molecule, how does the “activity change, negative = cytotoxicity” value read?
A: inactive: 5.64%

Q: For `Cc1c2cnn(CC(=O)NCCc3ccccc3)c(=O)c2c(C)n1Cc1ccccc1Cl`, which “activity change, negative = cytotoxicity” value is on record?
A: inactive: 6.63%

Q: For `CCC1CCCCN1CCCNC(=O)c1ccc2c(c1)N(Cc1cccc(C)c1)C(=O)c1ccccc1S2(=O)=O` (configuration not stated), which “activity change, negative = cytotoxicity” value is on record?
A: inactive: -11.1%

Q: Which “activity change, negative = cytotoxicity” value does the source give for `O=C(NCc1ccccc1Cl)C(=O)NCC(c1ccco1)S(=O)(=O)c1cccs1` (configuration not stated) here?
A: inactive: -12.9%

Q: Which “activity change, negative = cytotoxicity” value does the source give for `COc1ccccc1CNC(=O)C1CCN(c2nn3c(=O)cc(C)nc3s2)CC1` here?
A: inactive: -1.85%

Q: For `O=C(COc1ccccc1F)NC1CC(=O)N(c2ccc3c(c2)OCCO3)C1` (configuration not stated), which “activity change, negative = cytotoxicity” value is on record?
A: inactive: -4.69%

Q: For `Cc1ccc(-c2nc3ccc(Br)cn3c2Nc2ccc3c(c2)OCO3)o1`, which “activity change, negative = cytotoxicity” value is on record?
A: inactive: 3.59%

Q: For `CCc1ccccc1NC(=O)CSc1nc2c(oc3ccccc32)c(=O)n1-c1ccccc1`, which “activity change, negative = cytotoxicity” value is on record?
A: inactive: 2.76%

Q: For `COc1ccc(/C=C(\C#N)c2nc(-c3ccc(Cl)c(Cl)c3)cs2)cc1OC`, which “activity change, negative = cytotoxicity” value is on record?
A: inactive: 18.6%

Q: With `COc1cc(C(=O)NCC(c2ccc(N(C)C)cc2)N2CCCC2)cc(OC)c1OC` (configuration not stated) as the molecule, how does the “activity change, negative = cytotoxicity” value read?
A: inactive: 2.44%

Q: Which “activity change, negative = cytotoxicity” value does the source give for `CCOc1ccc(NC(=O)CSc2nc3nc(C)c(Cc4ccccc4)c(C)n3n2)cc1` here?
A: inactive: 11.4%

Q: Which “activity change, negative = cytotoxicity” value does the source give for `CC(=O)c1ccc(NC(=O)CN2C(=O)c3cccnc3Sc3ccccc32)cc1` here?
A: inactive: -6.22%

Q: With `CCc1ccc(NC(=O)CSc2nc(=O)n(Cc3cccnc3)c3c2CCC3)cc1` as the molecule, how does the “activity change, negative = cytotoxicity” value read?
A: inactive: 1.27%

Q: With `CCOc1ccc(NC(=O)CN2C(=O)CCSc3ccc(S(=O)(=O)N4CCCC4)cc32)cc1` as the molecule, how does the “activity change, negative = cytotoxicity” value read?
A: inactive: 5.6%

Q: With `O=C(NCC(c1cccnc1)N1CCOCC1)C(=O)Nc1cccc(Cl)c1` (configuration not stated) as the molecule, how does the “activity change, negative = cytotoxicity” value read?
A: inactive: -18.6%
